From the supplement of paper PMC12582362 come the findings set out here.

Structures can show the parent of a compound that is named as a salt. Screen size: about 1,500 compounds; about 30 (2%) showed activity.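 How the source made its calls: active = robust z-score below -2; a few such results were not called.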 This is one part of the list.

This experiment deals with optoTopBP1 Flp-In 293 T-REx (HEK293) cells. The experiment is described as follows: light-induced TopBP1 condensate (nuclear foci) count, plate-normalised robust z-score vs non-control wells; higher = more TopBP1 condensates (negative = condensation inhibitor), active = hit call of the paper. Particulars: 10 µM; incubation time 2 h.
`COc1ccc(C(=O)c2ccccc2)c(O)c1` [Oxybenzone]: the “light-induced TopBP1 condensate (z-score)” value was inactive: -0.628.
With `COc1c(N2C[C@@H]3CCCN[C@@H]3C2)c(F)cc2c(=O)c(C(=O)O)cn(C3CC3)c12` [Moxifloxacin] the figure was inactive: -0.794; with `CCCCOC(=O)c1ccccc1Nc1cccc(C(F)(F)F)c1` [Ufenamate], inactive: -0.0275; with `COc1ccc(C(=O)CC(=O)c2ccc(C(C)(C)C)cc2)cc1` [Avobenzone], inactive: -0.658.
With `Nc1nc2c(ncn2COCCO)c(=O)[nH]1` [Acyclovir] the figure was inactive: 0.582; with `CCCCCN(CCCCC)C(=O)C(CCC(=O)O)NC(=O)c1ccc(Cl)c(Cl)c1` (stereo unspecified) [Lorglumide sodium salt], inactive: -0.914.
For the molecule `CCCC1O[C@@H]2C[C@H]3[C@@H]4CCC5=CC(=O)C=C[C@]5(C)[C@H]4[C@@H](O)C[C@]3(C)[C@]2(C(=O)CO)O1` (stereo partly specified) [Budesonide], the “light-induced TopBP1 condensate (z-score)” value was inactive: -0.413.
With `CC(C)Cc1ccc(C(C)C(=O)OCc2ccccn2)cc1` (stereo unspecified) [Ibuprofen Piconol] the figure was inactive: -0.445; with `CC(C)(C)C(=O)C(Oc1ccc(Cl)cc1)n1ccnc1` (stereo unspecified) [Climbazole], inactive: 0.236.
The figure for `Cc1ccccc1OCC(O)CO` (stereo unspecified) [Mephenesin] is inactive: 0.652; for `C[C@H](N)[C@H](O)c1cccc(O)c1` [Metaraminol bitartrate] it is inactive: 0.925; for `CCN(CC)CCOC(=O)C(Cc1cccc2ccccc12)CC1CCCO1` (stereo unspecified) [Nafronyl oxalate] it is inactive: 0.19.
With `CC1(C)S[C@@H]2[C@H](NC(=O)C(C(=O)O)c3ccccc3)C(=O)N2[C@H]1C(=O)O` (stereo partly specified) [Carbenicillin disodium salt] the figure was inactive: 0.692.
For `O=C1CN(/N=C/c2ccc(-c3ccc([N+](=O)[O-])cc3)o2)C(=O)N1` [Dantrolene sodium salt], the “light-induced TopBP1 condensate (z-score)” value was inactive: 0.14.
The figure for `CCOC(=O)n1ccn(C)c1=S` [Carbimazole] is inactive: 0.956.
For `O=C(O)c1ccccc1Nc1cc(Cl)ccc1C(=O)O` [Lobenzarit disodium], the “light-induced TopBP1 condensate (z-score)” value is inactive: 0.707.
The figure for `CC1(C)S[C@@H]2[C@H](NC(=O)[C@H](C(=O)O)c3ccsc3)C(=O)N2[C@H]1C(=O)O` [Ticarcillin sodium] is inactive: 0.209; for `CN[C@@H]1[C@@H](O)[C@@H](O[C@@H]2[C@@H](O)[C@H](O[C@H]3OC(CN)=CC[C@H]3N)[C@@H](N)C[C@H]2N)OC[C@]1(C)O` [Sisomicin sulfate] it is inactive: 0.652.
With `CC[C@H]1OC(=O)C[C@@H](O)[C@H](C)[C@@H](O[C@@H]2O[C@H](C)[C@@H](O[C@H]3C[C@@](C)(O)[C@@H](O)[C@H](C)O3)[C@H](N(C)C)[C@H]2O)[C@@H](CC=O)C[C@@H](C)C(=O)/C=C/C(C)=C/[C@@H]1CO[C@@H]1O[C@H](C)[C@@H](O)[C@@H](OC)[C@H]1OC` [Tylosin] the figure was inactive: 0.755.
The figure for `O=C(CCCCCCC(=O)Nc1ccccc1)NO` [Vorinostat] is inactive: 0.977; for `COC(=O)C1=C(C)NC(C)=C(C(=O)OC2CCCN(Cc3ccccc3)C2)C1c1cccc([N+](=O)[O-])c1` (stereo unspecified) [Benidipine hydrochloride] it is inactive: -1.09.
In the case of `CCNC(=O)CCC/C=C\C[C@@H]1[C@@H](/C=C/[C@@H](O)CCc2ccccc2)[C@H](O)C[C@@H]1O` [Bimatoprost], the “light-induced TopBP1 condensate (z-score)” value was inactive: 1.78.
In the case of `C[C@]12C[C@H](O)[C@H]3[C@@H](CCC4=CC(=O)CC[C@@]43C)[C@@H]1CC[C@@H]2C(=O)CO` [Corticosterone], the “light-induced TopBP1 condensate (z-score)” value is inactive: 1.02.
The figure for `CC1(C)O[C@@H]2C[C@H]3[C@@H]4CCC5=CC(=O)C=C[C@]5(C)[C@H]4[C@@H](O)C[C@]3(C)[C@]2(C(=O)CO)O1` [Desonide] is inactive: -0.951; for `CCN(CC)C(=S)SSC(=S)N(CC)CC` [Disulfiram] it is active: -4.41; for `C/C(=C(\CCOP(=O)(O)O)SC(=O)c1ccccc1)N(C=O)Cc1cnc(C)nc1N` [Benfotiamine] it is inactive: 1.34.
With `Nc1c2c(nc3ccccc13)CCCC2` [Tacrine hydrochloride] the figure was inactive: 0.977; with `CN1CC(O)C2=C/C(=N/NC(N)=O)C(=O)C=C21` (stereo unspecified) [Carbazochrome], inactive: -0.923.
With `NC[C@@H]1O[C@@H](O[C@H]2[C@H](O)[C@@H](O[C@H]3O[C@H](CO)[C@@H](O)[C@H](N)[C@H]3O)[C@H](N)C[C@@H]2N)[C@@H](O)[C@H](O)[C@H]1O` [Kanamycin A sulfate] the figure was inactive: 0.0568.
In the case of `COC(=O)C1=C(C#N)NC(C)=C(C(=O)OC(C)C)C1c1cccc([N+](=O)[O-])c1` (stereo unspecified) [Nilvadipine], the “light-induced TopBP1 condensate (z-score)” value is inactive: 0.904.
The figure for `CC1CC(OC(=O)c2ccccc2O)CC(C)(C)C1` (stereo unspecified) [Homosalate] is inactive: 0.705; for `C[C@H](CCC(=O)O)[C@H]1CC[C@H]2[C@@H]3[C@@H](O)C[C@@H]4C[C@H](O)CC[C@]4(C)[C@H]3CC[C@]12C` [Urosiol] it is inactive: 0.273.
On to `C#C[C@]1(O)CC[C@H]2[C@@H]3CCC4=CCCC[C@@H]4[C@H]3CC[C@@]21C` [Lynestrenol], for which the “light-induced TopBP1 condensate (z-score)” value was inactive: 1.39.
`O=C(CCCN1CCN(c2ccccn2)CC1)c1ccc(F)cc1` [Azaperone]: the “light-induced TopBP1 condensate (z-score)” value was inactive: -0.633.
With `Nc1c2ccccc2nc2ccccc12` [Aminacrine], the “light-induced TopBP1 condensate (z-score)” value was inactive: -2.02.
In the case of `CN1CCC(=C2c3ccccc3Sc3ccccc32)CC1` [Pimethixene maleate], the “light-induced TopBP1 condensate (z-score)” value is inactive: -1.21.
With `Cc1ccc(=O)n(-c2ccccc2)c1` [Pirfenidone] the figure was inactive: 1.02.
With `N[C@@H](Cc1cc(I)c(Oc2ccc(O)c(I)c2)c(I)c1)C(=O)O` [Liothyronine] the figure was inactive: -0.187.
Take `CN1CCN(C(c2ccccc2)c2ccccc2)CC1` [Cyclizine hydrochloride]: the “light-induced TopBP1 condensate (z-score)” value was inactive: -0.648.
The figure for `OCCN(CCO)c1nc(N2CCCCC2)c2nc(N(CCO)CCO)nc(N3CCCCC3)c2n1` [Dipyridamole] is inactive: 0.235; for `CN(c1nccc(=O)[nH]1)C1CCN(c2nc3ccccc3n2Cc2ccc(F)cc2)CC1` [Mizolastine] it is inactive: -0.786.
